Hit rate of the full screen: of about 110,000 compounds, about 230 (0.21%) showed an effect of 50% or more. This is one part of the list.
These compounds were tested against DPAP1 (Plasmodium falciparum, UniProt Q8IIJ9) (assay: primary screen, percent inhibition; read by cleavage of a fluorogenic dipeptide substrate; higher = more effect of the substance).
Set-up: species or system P. falciparum D10 trophozoite lysates; single well
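Note: 30 min substrate incubation versus DMSO and 10 µM JCP410 controls.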

DPAP1, sequence (Q8IIJ9 whole entry, looked up): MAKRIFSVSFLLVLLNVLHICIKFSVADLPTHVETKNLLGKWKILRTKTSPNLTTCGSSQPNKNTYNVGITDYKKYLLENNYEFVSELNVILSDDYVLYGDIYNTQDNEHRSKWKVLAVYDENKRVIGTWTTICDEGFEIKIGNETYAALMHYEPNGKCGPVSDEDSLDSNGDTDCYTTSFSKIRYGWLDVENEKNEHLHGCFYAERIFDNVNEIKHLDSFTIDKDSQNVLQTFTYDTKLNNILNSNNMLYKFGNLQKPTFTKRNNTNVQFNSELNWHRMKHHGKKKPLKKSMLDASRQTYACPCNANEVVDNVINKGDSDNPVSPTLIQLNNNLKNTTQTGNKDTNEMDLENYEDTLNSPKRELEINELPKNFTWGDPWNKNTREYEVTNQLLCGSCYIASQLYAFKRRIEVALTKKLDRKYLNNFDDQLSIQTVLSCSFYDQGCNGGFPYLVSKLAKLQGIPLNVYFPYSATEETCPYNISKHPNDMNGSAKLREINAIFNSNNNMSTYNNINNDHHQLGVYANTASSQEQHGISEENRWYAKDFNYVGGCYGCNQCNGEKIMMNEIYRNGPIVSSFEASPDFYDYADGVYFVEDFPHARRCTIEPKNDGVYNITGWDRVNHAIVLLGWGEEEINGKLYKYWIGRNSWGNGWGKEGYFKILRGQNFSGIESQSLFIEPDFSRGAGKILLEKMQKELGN

SMILES	% Inhibition @ 10 uM
CNC(=O)c1c(/N=C/c2ccccc2O)sc2c1CCCC2	-2.98%
O=C(NC12CC3CC(CC(C3)C1)C2)C1CCS(=O)(=O)C1 (centres unmarked)	0.528%
Cc1ccc(C(=O)Nc2ccc(N3CCCC3)c(Cl)c2)cc1	-3.47%
O=C(NCc1ccc2c(c1)OCO2)c1cc(-c2ccccc2)nc2ccccc12	-3.94%
O=C1/C(=C\c2ccco2)N2CCC1CC2	-1.29%
O=C(CSC(=S)N1CCOCC1)c1ccccc1	-1.99%
O=C(Cn1ncc2ccccc2c1=O)Nc1nnc(CC(=O)N2CCOCC2)s1	-2.84%
COc1ccc(-c2nc3ccccc3c(=O)n2-c2cccnc2)cc1	2.43%
COc1cccc(CSc2nc3ccccc3c3nc(CCn4nc(C)cc4C)nn23)c1	2.73%
O=[N+]([O-])c1ccc(CSc2ccc(Cl)cc2)cc1	2.22%
CC(=O)Nc1cccc(NC(=O)c2ccccc2F)c1	-8.76%
COc1cccc(Oc2cc(O)nc(N)n2)c1	-0.436%
COc1ccccc1CNC(=O)c1cccc(F)c1	-4.15%
COC(=O)C1=CN(C)C=C(C(=O)OC)C1c1ccc(OC)c(Br)c1	-1.48%
Cc1c(CNCc2cccnc2)c(C(=O)O)c(C)n1Cc1ccccc1F	-0.23%
CC1=C(C(=O)Nc2ccccc2)C(c2ccc(Cl)cc2)NC(=O)N1 (centres unmarked)	-4.98%
Cc1ccc(OCC(=O)NC2CC(C)(C)NC(C)(C)C2)c(Br)c1	-5.28%
COc1cc(C(=O)Nc2cc(C)c(OCC(=O)N3CCOCC3)c(C)c2)cc(OC)c1OC	5.12%
COC(=O)c1cccc(NC2=C(N3CCCCC3)C(=O)c3ccccc3C2=O)c1	-4.75%
Cc1ccc2n1CCNC2	-2.77%
Cc1ccc(C)c(-c2csc(NC(=O)CSc3ccccc3)c2C(N)=O)c1	1.02%
O=C(NCCC1=CCCCC1)C1CCN(C(=O)c2ccc(F)cc2)CC1	-1.92%
Cc1c(-c2cccc(Cl)c2)nc2ccccc2c1C(=O)N1CCN(C)CC1	0.389%

SMILES	% Inhibition @ 10 uM
CCC(=O)c1cn(S(=O)(=O)c2ccc(C)cc2)c2ccccc12	2.03%
COc1cccc(/C=C2/SC(Nc3ccccc3)=NC2=O)c1OC	8.89%
COc1ccc(OC)c(CNCc2ccc3c(c2)OCO3)c1	-3.4%
Cc1c(C=C2C(=O)NC(=O)NC2=O)c(=O)n(-c2ccccc2)n1C	2.51%
COc1ccc(CNC2CCCCC2C)c(OC)c1 (centres unmarked)	-2.21%
c1ccc(Cn2c3ccccc3c3nnc(SCCN4CCOCC4)nc32)cc1	9.29%
CC(C)(C)c1nc(CN2CCCCC2)cc(CN2CCCCC2)c1O	7.39%
COc1ccc(-c2csc(/C(C#N)=C/c3ccc(OC)c(O)c3)n2)cc1	2.01%
CC(C)C[C@H](NC(=O)c1ccc(N2CCCC2)nc1)C(=O)NCC#N	7.72%
COc1ccc(CN(C(=O)c2ccco2)c2ccccc2C(=O)O)cc1	1.67%
O=[N+]([O-])c1ccc(NC2OC(CO)CC(O)C2O)cc1 (centres unmarked)	-1.74%
COc1ccc(-c2csc(NC(=O)c3ccccc3OC)c2C(=O)O)cc1	-2.17%
COc1cccc(-c2cc(C(=O)N3CCn4c3nc3ccccc34)[nH]n2)c1	-2.18%
CCC(C)NC(=O)C(=O)Nc1ccc(Cl)cc1 (centres unmarked)	6.08%
COc1ccc(OCCCC(=O)Nc2ccc(N(C)C)cc2)cc1	-2.09%
Cc1ccc(-c2cc(C(=O)NCCN3CCOCC3)c3ccccc3n2)s1	0.726%
O=C(c1cccc(Cl)c1)N1CCN(c2ccccc2)CC1	4.38%
CC1CCCN(S(=O)(=O)c2c[nH]cn2)C1 (centres unmarked)	6.08%
Cc1ccc(C(CN)CC(=O)O)cc1 (centres unmarked)	-4.08%
O=C(c1ccccc1Br)N1CCN(c2ccc(Cl)cc2)CC1	-1.38%
CSc1ncc(Cl)c(C(=O)Nc2nc3ccc(C)cc3s2)n1	-2.85%
Cc1ccc(CS(=O)Cc2ccc(C(=O)NCCCOC(C)C)o2)cc1 (centres unmarked)	-0.716%
Cc1nn(CCCC(=O)NC2CCCCCC2)c(=O)c2c1sc1ccccc12	-10.2%

SMILES	% Inhibition @ 10 uM
Cc1ccc(S(=O)(=O)N2C=Cc3ccccc3C2C#N)cc1 (centres unmarked)	-5.62%
COc1cccc2c(O)c(-c3ccccc3)c(O)nc12	0.408%
Cc1cc(Cl)cc(Cl)c1OCCCCCN1CCNCC1	-0.473%
Cc1cc(C)cc(NC(=O)CSc2nc(C)cc(O)n2)c1	3.97%
O=C(Nc1ccc(F)cc1)c1ccc(Cl)c(Cl)c1	-0.294%
CC(C)NC(=O)c1c2c(nn1C)-c1ccccc1SC2	-2.19%
COCCNC(=O)c1cnn2c(O)c(Cc3ccc(Cl)cc3)c(C)nc12	0.718%
COCCN1Cc2cccc(C(=O)NCc3ccc(F)cc3)c2C1=O	1.23%
CC(=O)c1c2c(n3cc4ccccc4cc13)C(=O)c1ccccc1C2=O	0.561%
C=C(C)Cn1c(SCC(N)=O)nc2c1c(=O)n(C)c(=O)n2C	1.82%
O=C(CCc1nc2cccnc2n1Cc1ccccc1)NCc1ccccc1	-1.08%
COc1cc(CNC2C3CC4CC(C3)CC2C4)c([N+](=O)[O-])cc1OC (centres unmarked)	-4.04%
COc1ccccc1C(=O)ON1C(=O)CCC1=O	-1.03%
Nc1ccccc1NC(=S)Nc1ccccc1	-1.29%
COc1ccc2c(c1)C1(SCCCS1)c1c(c(=O)c1=O)O2	8.4%
CCc1nc2ccc(C(=O)NCc3ccc(OC(C)C)cc3)cc2nc1CC	7.91%
CCCCCC(=O)Nc1ccccc1-n1cccc1	-1.36%
CCOC(=O)c1c(S(=O)(=O)NCCc2ccc(Cl)cc2)c(C)n(C)c1C	0.0065%
COc1ccc(N2CCN(CC(=O)Nc3nc(-c4ccccc4)cs3)CC2)cc1	-4.15%
CSc1ccc2c(c1)C(N1CCN(CCCO)CC1)=Cc1ccccc1S2	1.4%
CN(C)CCNC(=O)C12CCC3CC(CC(C3)C1)C2	-1.54%
COc1ccc(S(=O)(=O)N(CC(=O)Nc2cccnc2)c2ccccc2)cc1OC	-3.71%
